# Experimental data taken from the supplement of paper PMC8728848.
# Some of the results follow.
# Legend:
# Assay in all cases: glycan array binding signal (z-score within array); higher = stronger binding
# Details in all cases: glycan notation: IUPAC condensed, linker removed
# [1] = molecular target: Gal(b1-3)[Fuc(a1-4)]GlcNAc(b1-6)GalNAc
# Summary of the method: (§1)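 Negative Z-scores can be read as non-binding. The Z-score is calculated within each array and then averaged across arrays of one protein sequence at different concentrations or buffers and across linkers. Arrays, 3228 in all, were curated from the Consortium for Functional Glycomics database and kept only where the protein sequence was available.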
# [2] = molecular target: Gal(b1-3)[GlcNAc(b1-6)]GalNAc
# Summary of the method: as §1
# [3] = molecular target: Gal(b1-3)[Neu5Ac(a2-6)]GalNAc
# Summary of the method: as §1
# [4] = molecular target: Gal(b1-3)[Neu5Ac(a2-6)]GlcNAc(b1-4)Gal(b1-4)Glc
# Summary of the method: as §1
# [5] = molecular target: Gal(b1-3)[Neu5Ac(b2-6)]GalNAc
# Summary of the method: as §1
# Gal(b1-4)Gal = molecular target: Gal(b1-4)Gal
# Summary of the method: as §1
# [6] = molecular target: Gal(b1-4)GalNAc(a1-3)[Fuc(a1-2)]Gal(b1-4)GlcNAc
# Summary of the method: as §1
# [7] = molecular target: Gal(b1-4)GalNAc(b1-3)[Fuc(a1-2)]Gal(b1-4)GlcNAc
# Summary of the method: as §1
# Gal(b1-4)Glc = molecular target: Gal(b1-4)Glc
# Summary of the method: as §1
# Gal(b1-4)Glc6S = molecular target: Gal(b1-4)Glc6S
# Summary of the method: as §1
# Gal(b1-4)GlcNAc = molecular target: Gal(b1-4)GlcNAc
# Summary of the method: as §1
# [8] = molecular target: Gal(b1-4)GlcNAc(a1-6)Gal(b1-4)GlcNAc
# Summary of the method: as §1
# Gal(b1-4)GlcNAc(b1-2)Man = molecular target: Gal(b1-4)GlcNAc(b1-2)Man
# Summary of the method: as §1
# [9] = molecular target: Gal(b1-4)GlcNAc(b1-2)Man(a1-3)Man(b1-4)GlcNAc(b1-4)GlcNAc
# Summary of the method: as §1
# [10] = molecular target: Gal(b1-4)GlcNAc(b1-2)Man(a1-3)[Gal(b1-4)GlcNAc(b1-2)Man(a1-6)]Man(b1-4)GlcNAc(b1-4)GlcNAc
# Summary of the method: as §1
# [11] = molecular target: Gal(b1-4)GlcNAc(b1-2)Man(a1-3)[Gal(b1-4)GlcNAc(b1-2)Man(a1-6)]Man(b1-4)GlcNAc(b1-4)[Fuc(a1-6)]GlcNAc
# Summary of the method: as §1
# [12] = molecular target: Gal(b1-4)GlcNAc(b1-2)Man(a1-3)[Gal(b1-4)GlcNAc(b1-2)Man(a1-6)][Gal(b1-4)GlcNAc(b1-4)]Man(b1-4)GlcNAc(b1-4)[Fuc(a1-6)]GlcNAc
# Summary of the method: as §1
# [13] = molecular target: Gal(b1-4)GlcNAc(b1-2)Man(a1-3)[Gal(b1-4)GlcNAc(b1-2)Man(a1-6)][GlcNAc(b1-4)]Man(b1-4)GlcNAc(b1-4)[Fuc(a1-6)]GlcNAc
# Summary of the method: as §1
# [14] = molecular target: Gal(b1-4)GlcNAc(b1-2)Man(a1-3)[GlcNAc(b1-2)Man(a1-6)]Man(b1-4)GlcNAc(b1-4)GlcNAc
# Summary of the method: as §1
# [15] = molecular target: Gal(b1-4)GlcNAc(b1-2)Man(a1-3)[GlcNAc(b1-4)][Gal(b1-4)GlcNAc(b1-2)Man(a1-6)]Man(b1-4)GlcNAc(b1-4)GlcNAc
# Summary of the method: as §1
# [16] = molecular target: Gal(b1-4)GlcNAc(b1-2)Man(a1-3)[Man(a1-6)]Man(b1-4)GlcNAc(b1-4)GlcNAc
# Summary of the method: as §1
# [17] = molecular target: Gal(b1-4)GlcNAc(b1-2)Man(a1-6)Man(b1-4)GlcNAc(b1-4)GlcNAc
# Summary of the method: as §1
# [18] = molecular target: Gal(b1-4)GlcNAc(b1-2)Man(a1-6)[GlcNAc(b1-2)Man(a1-3)]Man(b1-4)GlcNAc(b1-4)GlcNAc
# Summary of the method: as §1
# [19] = molecular target: Gal(b1-4)GlcNAc(b1-2)Man(a1-6)[Man(a1-3)]Man(b1-4)GlcNAc(b1-4)GlcNAc
# Summary of the method: as §1
# [20] = molecular target: Gal(b1-4)GlcNAc(b1-2)[Gal(b1-4)GlcNAc(b1-4)]Man(a1-3)[Gal(b1-4)GlcNAc(b1-2)Man(a1-6)]Man(b1-4)GlcNAc(b1-4)GlcNAc
# Summary of the method: as §1
# [21] = molecular target: Gal(b1-4)GlcNAc(b1-2)[Gal(b1-4)GlcNAc(b1-4)]Man(a1-3)[Gal(b1-4)GlcNAc(b1-2)[Gal(b1-4)GlcNAc(b1-6)]Man(a1-6)]Man(b1-4)GlcNAc(b1-4)GlcNAc
# Summary of the method: as §1
# [22] = molecular target: Gal(b1-4)GlcNAc(b1-2)[Gal(b1-4)GlcNAc(b1-4)]Man(a1-3)[GlcNAc(b1-4)][Gal(b1-4)GlcNAc(b1-2)Man(a1-6)]Man(b1-4)GlcNAc(b1-4)GlcNAc
# Summary of the method: as §1
# [23] = molecular target: Gal(b1-4)GlcNAc(b1-2)[Gal(b1-4)GlcNAc(b1-4)]Man(a1-3)[GlcNAc(b1-4)][Gal(b1-4)GlcNAc(b1-2)[Gal(b1-4)GlcNAc(b1-6)]Man(a1-6)]Man(b1-4)GlcNAc(b1-4)GlcNAc
# Summary of the method: as §1
# [24] = molecular target: Gal(b1-4)GlcNAc(b1-2)[Gal(b1-4)GlcNAc(b1-6)]Man(a1-6)[Gal(b1-4)GlcNAc(b1-2)Man(a1-3)]Man(b1-4)GlcNAc(b1-4)GlcNAc
# Summary of the method: as §1
# [25] = molecular target: Gal(b1-4)GlcNAc(b1-2)[Gal(b1-4)GlcNAc(b1-6)]Man(a1-6)[Gal(b1-4)GlcNAc(b1-2)Man(a1-3)]Man(b1-4)GlcNAc(b1-4)[Fuc(a1-6)]GlcNAc
# Summary of the method: as §1
# [26] = molecular target: Gal(b1-4)GlcNAc(b1-2)[Gal(b1-4)GlcNAc(b1-6)]Man(a1-6)[GlcNAc(b1-4)][Gal(b1-4)GlcNAc(b1-2)Man(a1-3)]Man(b1-4)GlcNAc(b1-4)GlcNAc
# Summary of the method: as §1
# [27] = molecular target: Gal(b1-4)GlcNAc(b1-2)[Gal(b1-4)GlcNAc(b1-6)]Man(a1-6)[GlcNAc(b1-4)][Gal(b1-4)GlcNAc(b1-2)[Gal(b1-4)GlcNAc(b1-4)]Man(a1-3)]Man(b1-4)GlcNAc(b1-4)[Fuc(a1-6)]GlcNAc
# Summary of the method: as §1
# [28] = molecular target: Gal(b1-4)GlcNAc(b1-3)Gal(b1-3)GalNAc
# Summary of the method: as §1
# [29] = molecular target: Gal(b1-4)GlcNAc(b1-3)Gal(b1-3)GlcNAc
# Summary of the method: as §1
# [30] = molecular target: Gal(b1-4)GlcNAc(b1-3)Gal(b1-4)Glc
# Summary of the method: as §1
# [31] = molecular target: Gal(b1-4)GlcNAc(b1-3)Gal(b1-4)GlcNAc
# Summary of the method: as §1
# [32] = molecular target: Gal(b1-4)GlcNAc(b1-3)Gal(b1-4)GlcNAc(b1-2)Man(a1-3)[Gal(b1-4)GlcNAc(b1-3)Gal(b1-4)GlcNAc(b1-2)Man(a1-6)]Man(b1-4)GlcNAc(b1-4)GlcNAc
# Summary of the method: as §1
# [33] = molecular target: Gal(b1-4)GlcNAc(b1-3)Gal(b1-4)GlcNAc(b1-2)Man(a1-3)[Gal(b1-4)GlcNAc(b1-3)Gal(b1-4)GlcNAc(b1-2)Man(a1-6)]Man(b1-4)GlcNAc(b1-4)[Fuc(a1-6)]GlcNAc
# Summary of the method: as §1
binder,measurement,setting,value
SP15308A-bot-339-19-339 (Bacteroides ovatus) (protein) ACNNEWEDEQYEQYISFKSPIPAGGEGVTDIYVRYKEDGKVTYRLPIVVSGSTTNTLDREVHIAVDKDTLETLNIERFSIHRPGLWYTALEEDKYDFPKTVHISAGSSVEQLNIDFNLQGIDMLEKWVLPLTIVDDPSYNYKSHPRKNYAKALLRVIPFNNYSGSYTSSAMKVYTYINGKPDTNARTANKRTGYVINDNTVFFYAGLISEDLDKEVREKYKINVHFNEDGTLHMEQGDPTNKMKFELIGTPTYSKTSVMDATRPYLERRYVQIMFEYDFEDFSYGGNGVDVIPIKYKVEGSMTLQRNINTQIPDEDQQIEW,glycan array binding signal (z-score),[1],0.189
same,glycan array binding signal (z-score),[2],-0.316
same,glycan array binding signal (z-score),[3],-0.201
same,glycan array binding signal (z-score),[4],0.766
same,glycan array binding signal (z-score),[5],-0.06
same,glycan array binding signal (z-score),Gal(b1-4)Gal,-0.339
same,glycan array binding signal (z-score),[6],-0.475
same,glycan array binding signal (z-score),[7],-0.312
same,glycan array binding signal (z-score),Gal(b1-4)Glc,-0.451
same,glycan array binding signal (z-score),Gal(b1-4)Glc6S,0.631
same,glycan array binding signal (z-score),Gal(b1-4)GlcNAc,-0.185
same,glycan array binding signal (z-score),[8],-0.497
same,glycan array binding signal (z-score),Gal(b1-4)GlcNAc(b1-2)Man,1.02
same,glycan array binding signal (z-score),[9],-0.191
same,glycan array binding signal (z-score),[10],-0.394
same,glycan array binding signal (z-score),[11],-0.014
same,glycan array binding signal (z-score),[12],-0.393
same,glycan array binding signal (z-score),[13],-0.323
same,glycan array binding signal (z-score),[14],-0.46
same,glycan array binding signal (z-score),[15],-0.183
same,glycan array binding signal (z-score),[16],-0.153
same,glycan array binding signal (z-score),[17],-0.545
same,glycan array binding signal (z-score),[18],-0.093
same,glycan array binding signal (z-score),[19],0.225
same,glycan array binding signal (z-score),[20],-0.051
same,glycan array binding signal (z-score),[21],-0.036
same,glycan array binding signal (z-score),[22],-0.429
same,glycan array binding signal (z-score),[23],-0.651
same,glycan array binding signal (z-score),[24],0.11
same,glycan array binding signal (z-score),[25],-0.254
same,glycan array binding signal (z-score),[26],-0.304
same,glycan array binding signal (z-score),[27],-0.757
same,glycan array binding signal (z-score),[28],-0.408
same,glycan array binding signal (z-score),[29],-0.173
same,glycan array binding signal (z-score),[30],0.226
same,glycan array binding signal (z-score),[31],-0.125
same,glycan array binding signal (z-score),[32],0.404
same,glycan array binding signal (z-score),[33],-0.278
